# Reference: PubChem BioAssay AID463173 (ICCB-Longwood Screening Facility, Harvard Medical School, 2010)
# Among all 52,000 compounds or so, about 1,700 (3.3%) were called active. Cut-off read from the data, not from the text of the source: active = survival mostly below about 52% (no sharp cut-off); inactive = mostly above about 56%. The list shows a part of the results.
# Test system: Wild type
# Test: growth inhibition of S. aureus wild type versus tarO mutant, primary screen, teichoic acid synthesis inhibitors, RN4220, OD600 (AID 463173)
# Conditions: S. aureus RN4220 wild type/DeltatarO growth, OD600, 18 h, hits give low values, screened at 18.75 µg/mL (by protocol)
row,SMILES,survival
1,Cc1ccc(Cl)cc1N1CCN(S(=O)(=O)c2ccc3c(c2)CCCN3C(=O)C2CCC2)CC1,inactive: 97%
2,O=C(NCc1cccc(F)c1)C1CC(O)CN1C(=O)Nc1ccccc1 (centres undefined),inactive: 95%
3,Cc1ccc(CN2C(=O)c3oc4ccc(C)cc4c(=O)c3C2c2ccc(O)cc2)cc1 (centres undefined),inactive: 84%
4,COc1cc(OC)c(NC(=O)Cn2c(=O)oc3cc(S(=O)(=O)N4CCCC4)ccc32)cc1Cl,inactive: 68%
5,COc1ccc(NS(=O)(=O)c2ccc3[nH]c4c(c3c2)CCCC4)cc1Cl,inactive: 60%
6,CCCn1nnnc1SCC(=O)c1ccccc1,inactive: 123%
7,Cc1ccc(OCC(=O)N(Cc2ccco2)Cc2ccc(C)o2)cc1,inactive: 82%
8,CCC(C)NC(=O)c1nn(-c2ccc(C)cc2)c(=O)n(C)c1=O (centres undefined),inactive: 72%
9,COc1ccc(-c2cc(C(F)(F)F)n3nc(C(=O)Nc4ccccc4SC)cc3n2)cc1OC,inactive: 135%
10,COc1cc2c(=O)n(CCC(=O)NCC3CCCO3)c(=O)n(CC(=O)Nc3ccc(C)c(C)c3)c2cc1OC (centres undefined),inactive: 79%
11,CC(C)c1cccc(OCCn2c(-c3ccc(Cl)cc3)nc3ccccc3c2=O)c1,inactive: 76%
12,COc1cccc(CCNC(=O)c2c(O)nc3ccccn3c2=O)c1,inactive: 67%
13,COCCCNC(=O)C1CCN(c2nn3cc(-c4ccc(F)cc4)nc3s2)CC1,inactive: 88%
14,CCOc1ccccc1NC(=O)c1cnn2c(C(F)F)cc(-c3ccccc3)nc12,inactive: 52%
15,c1coc(C2NCCS2)c1 (centres undefined),inactive: 99%
16,Cc1ccccc1C(=O)OCc1cc(=O)n2nc(-c3cccs3)sc2n1,inactive: 128%
17,CCOc1ccc(NC(=O)/C(C#N)=C\c2cc(C)n(C)c2C)cc1,inactive: 103%
18,CC1=C(C(=O)Nc2ccccc2)C(c2cccs2)n2nc(SCc3ccccc3F)nc2N1 (centres undefined),inactive: 92%
19,CN(C)CCN(Cc1ccco1)C(=O)c1oc2ccccc2c1NC(=O)c1ccccc1,inactive: 88%
20,Cc1ccccc1NC(=O)CN1CCC(n2nnc3ccccc32)CC1,inactive: 90%
21,Cc1ccc(C)c(NC(=O)c2cc(S(=O)(=O)N3CCCCCC3)ccc2F)c1,inactive: 75%
22,CC(C)OC(=O)CSc1ncnc2c1cnn2-c1ccccc1,inactive: 100%
23,COc1ccc(CCCc2nnc(SCC(=O)Nc3ccc(OC)cc3)o2)cc1,inactive: 72%

row,SMILES,survival
1,Cc1ccc2c(=O)c(C(=O)c3cccc(Cl)c3)cn(CC(=O)Nc3ccc4c(c3)OCCO4)c2n1,inactive: 74%
2,Cn1cc(S(=O)(=O)c2cccc(Cl)c2)c(=O)c2cc(F)c(N3CCN(c4ccccc4)CC3)cc21,active: 1%
3,O=C(CSc1nnc(NC(=O)Nc2ccccc2)s1)Nc1cccc(F)c1,inactive: 75%
4,CN1C(=O)Cc2cc(S(=O)(=O)CCC(=O)Nc3ccc(F)c(Cl)c3)ccc21,inactive: 112%
5,O=C(Nc1cc(F)ccc1F)N1CCC(CN2CCCC2)CC1,inactive: 82%
6,O=C(CSc1nc2ccccc2o1)c1ccc2c(c1)OCCO2,inactive: 108%
7,CCOC(=O)c1ccccc1NC(=O)N1CCC(CN2CCCCC2)CC1,inactive: 72%
8,CCOc1ccc(NC(=O)CN2CCCN(Cc3cc(C)ccc3C)S2(=O)=O)cc1,inactive: 86%
9,Cc1ccc(NC(=O)C(C)Sc2nc(=O)cc(N)n2-c2ccccc2)cc1 (centres undefined),inactive: 77%
10,CCOC(=O)c1cccc(NC(=O)CCn2nc(C)c(S(=O)(=O)N3CCCCC3)c2C)c1,inactive: 120%
11,CCCC(=O)Nc1ccc(-c2nc3ncccc3o2)cc1C,inactive: 89%
12,COc1cc(C2c3c(-c4cc(C)ccc4O)n[nH]c3C(=O)N2CCCO)ccc1OCCC(C)C (centres undefined),inactive: 67%
13,CCc1ccccc1Nc1cc(C(=O)NC(C)c2ccccc2)c2ccccc2n1 (centres undefined),inactive: 94%
14,CCCc1nn2c(=O)cc(COC(=O)c3ccccc3NC(=O)c3ccc(Cl)cc3)nc2s1,inactive: 101%
15,CCOc1ccc(NC(=O)C2CCN(c3nnc(-n4c(C)ccc4C)s3)CC2)cc1,inactive: 88%
16,COc1ccc(NC(=O)CSc2nc3ccccc3n2Cc2cccc(OC)c2)cc1,inactive: 159%
17,COc1ccc2c(CNCCc3ccco3)c(C(=O)O)n(Cc3ccccc3)c2c1,inactive: 115%
18,CCOC(=O)c1ccccc1NC(=O)c1ccncc1,inactive: 94%
19,Cc1cc(S(=O)(=O)Nc2ccc(-c3ccc(N4CCCCCC4)nn3)cc2)c(C)cc1Cl,inactive: 69%
20,COCCNC(=O)c1cccc(-n2c(C)nc3cccnc32)c1,inactive: 66%
21,Cc1nc(-c2cccnc2)sc1CCNS(=O)(=O)c1ccc(F)cc1,inactive: 83%
22,CCc1sc(Nc2cccc(C)c2C)nc1-c1cc2cccc(OC)c2oc1=O,inactive: 71%
23,COc1ccc(-c2cc(C(F)(F)F)nc(SCC(=O)NCCc3ccccc3)n2)cc1OC,inactive: 81%

row,SMILES,survival
1,Cc1ccc(NC(=O)c2cc(S(=O)(=O)N3CCc4ccccc43)ccc2F)cc1Cl,inactive: 76%
2,COc1cc(CNn2cnnc2)ccc1OCC(=O)NC(C)(C)C,inactive: 101%
3,COc1cc(OC)cc(-n2c(=O)c3sccc3n(Cc3c(C)cc(C)cc3C)c2=O)c1,inactive: 141%
4,COc1cccc(C(=O)Nc2cccc(-c3cn4c(C)csc4n3)c2)c1OC,inactive: 120%
5,O=C(Nc1cccc(Cl)c1)c1cc2c(=O)[nH]c3ccccc3c2s1,inactive: 63%
6,Cc1cccc(N2CCN(C(=O)CCn3c(=O)c4cccn4c4cccnc43)CC2C)c1 (centres undefined),inactive: 76%
7,Cc1cccc(-c2nc3c4ccccc4nc(N4CCN(c5cc(C)ccc5C)CC4)n3n2)c1,inactive: 132%
8,O=C(Nc1ccc(-c2cn3cccnc3n2)cc1)c1cc(Br)ccc1Cl,inactive: 87%
9,Cc1nnc(N2CCCC(C(=O)NCCc3ccc(Cl)cc3)C2)c2nn(-c3ccccc3)c(C)c12 (centres undefined),inactive: 68%
10,CCOc1ccc(-c2nn(CC(=O)NC3CCCC3)c3c2cnc2ccc(F)cc23)cc1,inactive: 148%
11,CCc1ccccc1NC(=O)c1cnc2sc(N3CCCC3)nn2c1=O,inactive: 126%
12,CC(=O)N1CC=C2C(C#N)=C(N)C(C#N)(C#N)C(Cc3ccccc3)C2C1 (centres undefined),inactive: 118%
13,COc1cccc(N2CCN(C(=O)Cn3c(-c4cccs4)cc4ccccc43)CC2)c1,inactive: 126%
14,COc1ccc(CN2C(=O)c3ccccc3C2C(=O)NCCc2ccccc2)c(OC)c1 (centres undefined),inactive: 87%
15,CC1=C(C(=O)Nc2ccc(C)cc2C)C(c2cccs2)n2nc(SCc3ccccc3Cl)nc2N1 (centres undefined),inactive: 76%
16,CCN(Cc1ccccc1)C(=O)Cn1c(=O)n(-c2ccc(C)c(C)c2)c(=O)c2c(C)c(C)sc21,inactive: 91%
17,O=c1oc2ccccc2cc1-c1cn2cc(Cc3ccc(Cl)cc3)sc2n1,inactive: 80%
18,O=c1cc(-c2ccccc2)n2c(SCc3ccc(F)cc3)nnc2[nH]1,inactive: 102%
19,Cc1cn2c(=O)cc(COC(=O)COc3ccccc3C)nc2s1,inactive: 60%
20,CCOC(=O)c1cnc2c(C)c(C)ccc2c1NCCCCCO,inactive: 110%
21,CCOC(=O)c1c(C)[nH]c(CCC(=O)NCc2ccc(N(C)C)cc2)c1C,inactive: 73%
22,CCn1cc(C(=O)N2CCN(c3ccccc3F)CC2)c(=O)c2cc(S(=O)(=O)N(C)C)ccc21,inactive: 132%
23,O=C(Nc1cccc(C(F)(F)F)c1)c1cc2ccc3cccnc3c2[nH]1,inactive: 68%

row,SMILES,survival
1,Cc1ccc(-c2nc(C)c(CCNS(=O)(=O)c3ccc(F)c(C(F)(F)F)c3)s2)cc1,active: -6%
2,COc1ccc(CNc2oc(-c3ccc(COc4ccccc4C)o3)nc2C#N)cc1,inactive: 89%
3,Cc1ccc(C)c(OC(=O)CSc2nnc(CNC(=O)c3ccccc3)o2)c1,inactive: 114%
4,O=C(N/N=C/c1c(O)ccc2ccccc12)C1CC12CCC2 (centres undefined),inactive: 131%
5,CC1=C(c2ccc(C)cc2)S(=O)(=O)NC1=NCCCN1CCN(c2ccc(F)cc2)CC1,inactive: 60%
6,Cc1ccc(NC(=O)CSc2nc(-c3ccco3)cc(C(F)(F)F)n2)cc1,inactive: 137%
7,Cc1ccc(NC(=O)CN2C(=O)CCSc3ccc(S(=O)(=O)N4CCCC4)cc32)cc1C,inactive: 78%
8,CC(C)c1ccc(OC(=O)c2cc(-c3ccccc3)on2)cc1,inactive: 106%
9,CCOc1ccc(-n2nc3ccc(NC(=O)COc4ccc(OC)cc4)cc3n2)cc1,inactive: 95%
10,CCN(CC)c1ccc(NC(=O)CSc2nc(-c3cccs3)cc(C(F)(F)F)n2)cc1,inactive: 124%
11,Cc1ccc(NC(=O)Nc2nnc(N(C)Cc3ccccc3)s2)c(C)c1,inactive: 90%
12,CCN(CC)c1ccc(NS(=O)(=O)c2cc3[nH]c(=O)c(=O)[nH]c3cc2C)c(C)c1,inactive: 71%
13,Cc1cc2oc(C(=O)Nc3ccc(S(=O)(=O)N4CCCCCC4)cc3)cc(=O)c2cc1C,inactive: 80%
14,COc1cc(C)cc2oc(=O)c(CC(=O)NCc3cccc(Cl)c3)c(C)c12,inactive: 75%
15,CCc1nc(Oc2cccc(F)c2)c2oc3ccccc3c2n1,inactive: 81%
16,CC(=O)N1CCc2c(sc3nc(SCC(C)C)n(-c4ccc(F)c(Cl)c4)c(=O)c23)C1,inactive: 106%
17,CCCSc1ncc(Cl)c(C(=O)Nc2c(C(=O)Nc3ccc(C)cc3)oc3ccccc23)n1,inactive: 81%
18,O=C(NCCN1CCCC1)c1ccc2c(c1)OCCO2,inactive: 97%
19,COC(=O)c1ccc(C2C(C(=O)Nc3ccccc3)=C(C)Nc3nc4ccccc4n32)cc1 (centres undefined),inactive: 77%
20,Cc1ccc(Nc2nc(C)nc(N)c2S(=O)(=O)c2ccccc2)cc1,inactive: 74%
